Measurements published in US5714467A, “Antibacterial and antimalarial hybrid peptides” (The Rockefeller University, priority 1993, dated 1998).
Part of at least one peptide drawing is inferred or uncertain, most often the ends. Where no end group is shown, it is not given here.

How the values were obtained:
Bacillus subtilis Bs11 = assay: inhibition zone assay, lethal concentration; assay type: cell-based; details: for Lethal concentration, Bacillus subtilis Bs11 (Medium E): Table 2, Medium E
Procedure: (§1) The products of the invention were tested for activity against a variety of test organisms selected to represent a number of different types of pathogens some of them known to be particularly virulent by the inhibition zone assay of Hoffmann et al (1981) Insect Biochem. 11 537-548 which is incorporated herein by reference. Thin agar or agarose plates (8.5 cm diameter) were prepared with 6 ml of rich medium containing 100 ug/ml of streptomycin and 2×10^5 viable cells of a test organism resistant to streptomycin. Wells of […] diameter were punched in the plates and 3 ul of serially diluted samples were placed in the wells. The diameters of the zones of inhibition around the wells were measured after overnight incubation at 30° or 37° C. For each peptide the squares of the zone diameters were plotted against the logarithm of the concentration, and from the slopes and intercepts the lethal concentrations were calculated as described by Hultmark (1983) EMBO J. 2, 571-76 or Hultmark et al (1982) Eur. J. Biochem. 127 207-217 each of which being incorporated herein by reference.
(§2) It was observed during testing that basic peptides often bind to agar plates, but not so much to agarose. Therefore those lethal concentrations determined on agar may, in fact, be substantially higher than the actual lethal concentrations.
(§3) Novel peptides CA(1-8)M(1-18), CA(1-9)M(1-17), CB(1-13)M(1-13), CA(1-17)M(1-9), CA(1-18)M(1-8), M(1-13)CA(1-22) and M(1-13)CA(1-13) were prepared as described above (see Examples 1-6). These novel peptides and CA, CB, and M were tested for activity against a variety of organisms selected to represent a number of different types of pathogens, some of them known to be particularly virulent by the inhibition zone assay of Hoffmann et al (1981), Insect Biochem. 11 537-48. As in Examples 1-6, thin agarose plates were prepared with the respective organisms. The diameters of the zones of inhibition were measured after overnight incubation at 30° C. The lethal concentrations were determined as described above (see Examples 1-6; Hultmark et al articles cited thereat).

Escherichia coli D21 = assay: inhibition zone assay, lethal concentration; assay type: cell-based
Procedure: as §1, §2, §3

[1] = system: Pseudomonas aeruginosa OT97; assay: inhibition zone assay, lethal concentration; assay type: cell-based
Procedure: as §1, §2, §3

Bacillus megaterium BM11 = assay: inhibition zone assay, lethal concentration; assay type: cell-based; details: Table 2, footnote c: incubation overnight at 37° C.
Procedure: as §1, §2

Escherichia coli D22 = assay: inhibition zone assay, lethal concentration; assay type: cell-based; details: Table 2, footnote c: incubation overnight at 37° C.
Procedure: as §1, §2

Micrococcus luteus Ml11 = assay: inhibition zone assay, lethal concentration; assay type: cell-based; details: Table 2, footnote c: incubation overnight at 37° C.
Procedure: as §1, §2

[2] = system: variety of test organisms; assay: antibacterial activity against the test organisms overall; assay type: cell-based; details: against the organisms tested, in words
[3] = system: Staphylococcus aureus Cowan I; assay: inhibition zone assay, lethal concentration; assay type: cell-based; details: for Lethal concentration, Staphylococcus aureus Cowan I: Table 2, footnote a: incubation overnight at 30° C. as well as at 37° C.
Procedure: as §1, §2, §3

Streptococcus pyogenes = assay: inhibition zone assay, lethal concentration; assay type: cell-based; details: Table 2, footnote a: incubation overnight at 30° C. as well as at 37° C.
Procedure: as §1, §2, §3

Candida albicans = assay: inhibition zone assay, lethal concentration; assay type: cell-based; details: Table 2, footnote c: incubation overnight at 37° C.
Procedure: as §1, §2

Saccharomyces cerevisiae = assay: inhibition zone assay, lethal concentration; assay type: cell-based; details: for potency against yeast relative to cecropin A: Sacchromyces cerevisiae; for Lethal concentration, Saccharomyces cerevisiae: Table 2, footnote c: incubation overnight at 37° C.
Procedure: as §1, §2

[4] = system: Staphylococcus haemolyticus; assay: inhibition zone assay, lethal concentration; assay type: cell-based; details: Table 2, footnote c: incubation overnight at 37° C.
Procedure: as §1, §2

[5] = system: Xenorhabdus nematophilis Xn21; assay: inhibition zone assay, lethal concentration; assay type: cell-based; details: Table 2, footnote c: incubation overnight at 37° C.
Procedure: as §1, §2

[6] = system: Plasmodium falciparium strain F32 (Tanzania), blood stream forms; assay: inhibition of reinvasion of human red cells by malaria parasite; assay type: cell-based, Plasmodium falciparum
Procedure: Hybrid peptides CA(1-13)M(1-13) and CA(1-8)M(1-18) were prepared as described above (see Examples 1-6) and were assayed for activity against the blood stream form of Plasmodium falciparium. For comparison the test included cecropins A and B and the frog skin peptides magainin 2 and PGLa.
The blood stream forms of the malaria parasite Plasmodium falciparium, primarily late trophozoites and early schizonts, were assayed by recording the inhibition of the reinvasion of human red cells by the method of Wahlin, B., et al, (1984) Proc. Nat'l Acad. Sci. USA 81, 7912-16, incorporated herein by reference. Quadruplicate microcultures of strain F32 (Tanzania) were incubated for 20 hrs at 37° C. in a complete tissue culture medium, with or without different concentrations of the peptides to be assayed. After acridine orange staining, the percentage of newly infected red cells was scored in a fluorescence microscope. For each culture 40,000 red cells were analysed for parasitic infection. Duplicate assays were run for CA(1-13)M(1-13).

[7] = Table 2, footnote c: incubation overnight at 37° C.
[8] = Table 2, footnote a: incubation overnight at 30° C. as well as at 37° C.
[9] = footnote c: incubation overnight at 37° C.

| Compound | Lethal concentration, Bacillus subtilis Bs11 (Bacillus subtilis Bs11; [8]) | increase in antibiotic activity over cecropin A (Bacillus subtilis Bs11; against Bacillus subtilis) | Lethal concentration, Escherichia coli D21 (Escherichia coli D21; [8]) | Lethal concentration, Pseudomonas aeruginosa OT97 [1, 8] | Lethal concentration, Staphylococcus aureus Cowan I [3] | increase in antibiotic activity over cecropin A ([3]; against Staphylococcus aureus) | Lethal concentration, Streptococcus pyogenes (Streptococcus pyogenes) | Lethal concentration, Candida albicans (Candida albicans) | potency against yeast relative to cecropin A (Saccharomyces cerevisiae) | Lethal concentration, Saccharomyces cerevisiae (Saccharomyces cerevisiae) | Lethal concentration, Staphylococcus haemolyticus [4] | Lethal concentration, Xenorhabdus nematophilis Xn21 [5] | Lethal concentration, Bacillus subtilis Bs11 (Medium E) (Bacillus subtilis Bs11; [9]) | other results |
| --- | --- | --- | --- | --- | --- | --- | --- | --- | --- | --- | --- | --- | --- | --- |
| KWKLFKKIEKVGQRVRDAVISAGPAVATVAQATALAK-NH2 [CA(1-11)CD(12-37)] |  |  |  |  |  |  |  |  |  |  |  |  |  | Lethal concentration, Bacillus subtilis Bs11 (Bacillus subtilis Bs11; [7]): 6 µM; Lethal concentration, Escherichia coli D21 (Escherichia coli D21; [7]): 0.5 µM; Lethal concentration, Pseudomonas aeruginosa OT97 [1, 7]: 1 µM; Lethal concentration, Bacillus megaterium BM11 (Bacillus megaterium BM11): 0.8 µM; Lethal concentration, Escherichia coli D22 (Escherichia coli D22): 0.3 µM; Lethal concentration, Micrococcus luteus Ml11 (Micrococcus luteus Ml11): 0.7 µM; antibiotic activity relative to the naturally occurring parent peptides [2]: more active than either cecropin A or cecropin D |
| CC[C@H](C)[C@H](NC(=O)CNC(=O)[C@H](CCC(N)=O)NC(=O)CNC(=O)[C@@H](NC(=O)[C@H](CCCCN)NC(=O)[C@H](CCC(=O)O)NC(=O)[C@@H](NC(=O)[C@H](CCCCN)NC(=O)[C@H](CCCCN)NC(=O)[C@H](Cc1ccccc1)NC(=O)[C@H](CC(C)C)NC(=O)[C@H](CCCCN)NC(=O)[C@H](Cc1c[nH]c2ccccc12)NC(=O)[C@@H](N)CCCCN)[C@@H](C)CC)C(C)C)C(=O)NCC(=O)N[C@@H](C)C(=O)N[C@H](C(=O)N[C@@H](CC(C)C)C(=O)N[C@@H](CCCCN)C(=O)N[C@H](C(=O)N[C@@H](CC(C)C)C(=O)N[C@H](C(=O)N[C@H](C(=O)NCC(=O)N[C@@H](CC(C)C)C(N)=O)[C@@H](C)O)[C@@H](C)O)C(C)C)C(C)C [CA(1-13)M(1-13)] | 0.7 µM | 40 to 200 fold | 0.5 µM | 1 µM | 2 µM | 40 to 200 fold | 1 µM | 160 µM | greater than cecropin A | 20 µM | 0.6 µM | 4 µM |  | Lethal concentration, Bacillus subtilis Bs11 (Medium E) (Bacillus subtilis Bs11; no incubation footnote): 0.9 µM; activity relative to cecropin A (Bacillus subtilis Bs11; against Bacillus subtilis, in words): more active; activity relative to cecropin A ([3]; against Staphylococcus aureus, in words): more active; antimalarial potency in words ([6]; FIG. 1, blood stream form of Plasmodium falciparium): of an order more potent than CB; IC50 ([6]; Table 4, P. falciparum, read-out: 50% Reinvasion Inhibition): 17 µM |
| CC[C@H](C)[C@H](NC(=O)CNC(=O)[C@@H]1CCCN1C(=O)CNC(=O)[C@H](C)NC(=O)[C@H](CCCCN)NC(=O)[C@@H](NC(=O)[C@@H](NC(=O)CNC(=O)[C@H](CC(=O)O)NC(=O)[C@H](CCCNC(=N)N)NC(=O)[C@@H](NC(=O)[C@H](CC(N)=O)NC(=O)[C@H](CCC(N)=O)NC(=O)CNC(=O)[C@@H](NC(=O)[C@H](CCCCN)NC(=O)[C@H](CCC(=O)O)NC(=O)[C@@H](NC(=O)[C@H](CCCCN)NC(=O)[C@H](CCCCN)NC(=O)[C@H](Cc1ccccc1)NC(=O)[C@H](CC(C)C)NC(=O)[C@H](CCCCN)NC(=O)[C@H](Cc1c[nH]c2ccccc12)NC(=O)[C@@H](N)CCCCN)[C@@H](C)CC)C(C)C)[C@@H](C)CC)[C@@H](C)CC)[C@@H](C)CC)C(=O)NCC(=O)N[C@@H](C)C(=O)N[C@H](C(=O)N[C@@H](CC(C)C)C(=O)N[C@@H](CCCCN)C(=O)N[C@H](C(=O)N[C@@H](CC(C)C)C(=O)N[C@H](C(=O)N[C@H](C(=O)NCC(=O)N[C@@H](CC(C)C)C(N)=O)[C@@H](C)O)[C@@H](C)O)C(C)C)C(C)C [CA(1-24)M(1-13)] | 0.5 µM | 40 to 200 fold | 0.3 µM | 1 µM | 6 µM | 40 to 200 fold | 2 µM | > 200 µM | greater than cecropin A | 50 µM | 0.9 µM | 2 µM | 1 µM |  |
| CC[C@H](C)[C@H](NC(=O)CNC(=O)[C@H](CCC(N)=O)NC(=O)[C@H](CCC(N)=O)NC(=O)[C@H](CCCNC(=N)N)NC(=O)[C@H](CCCCN)NC(=O)[C@H](CCCNC(=N)N)NC(=O)[C@H](CCCCN)NC(=O)[C@@H](NC(=O)[C@H](Cc1c[nH]c2ccccc12)NC(=O)[C@H](CO)NC(=O)[C@@H](NC(=O)[C@@H](N)CC(C)C)[C@@H](C)CC)[C@@H](C)CC)C(=O)NCC(=O)N[C@@H](C)C(=O)N[C@H](C(=O)N[C@@H](CC(C)C)C(=O)N[C@@H](CCCCN)C(=O)N[C@H](C(=O)N[C@@H](CC(C)C)C(=O)N[C@H](C(=O)N[C@H](C(=O)NCC(=O)N[C@@H](CC(C)C)C(N)=O)[C@@H](C)O)[C@@H](C)O)C(C)C)C(C)C [M(16-26)M(1-13)] | 0.7 µM |  | 0.7 µM | 8 µM | 10 µM |  | 1 µM | 180 µM |  | 25 µM | 0.8 µM | 30 µM | 1 µM |  |
